# Results published in the supplement of paper PMC8728848.
# This is one part of the list.
# Legend:
# Assay in all cases: glycan array binding signal (z-score within array); higher = stronger binding
# Conditions in all cases: glycan notation: IUPAC condensed, linker removed
# [1] = target: Fuc(a1-2)Gal
# Method in brief: (§1)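 Columns mapping to the same glycan were averaged after glycan names were converted to IUPAC-condensed notation. The data come from 3228 arrays in the Consortium for Functional Glycomics database, limited to those with an available protein sequence. Binding is reported as a within-array Z-score averaged across arrays of one protein sequence and across linkers.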
# [2] = target: Fuc(a1-2)Gal(b1-3)GalNAc
# Method in brief: as §1
# [3] = target: Fuc(a1-2)Gal(b1-3)GalNAc(b1-3)Gal
# Method in brief: as §1
# [4] = target: Fuc(a1-2)Gal(b1-3)GalNAc(b1-3)Gal(a1-4)Gal(b1-4)Glc
# Method in brief: as §1
# [5] = target: Fuc(a1-2)Gal(b1-3)GalNAc(b1-4)[Neu5Ac(a2-3)]Gal(b1-4)Glc
# Method in brief: as §1
# [6] = target: Fuc(a1-2)Gal(b1-3)GlcNAc
# Method in brief: as §1
# [7] = target: Fuc(a1-2)Gal(b1-3)GlcNAc(b1-2)Man(a1-3)[Fuc(a1-2)Gal(b1-3)GlcNAc(b1-2)Man(a1-6)]Man(b1-4)GlcNAc(b1-4)GlcNAc
# Method in brief: as §1
# [8] = target: Fuc(a1-2)Gal(b1-3)GlcNAc(b1-3)Gal(b1-4)Glc
# Method in brief: as §1
# [9] = target: Fuc(a1-2)Gal(b1-3)GlcNAc(b1-3)[Gal(b1-4)[Fuc(a1-3)]GlcNAc(b1-6)]Gal(b1-4)Glc
# Method in brief: as §1
# [10] = target: Fuc(a1-2)Gal(b1-3)[Fuc(a1-4)]GlcNAc
# Method in brief: as §1
# [11] = target: Fuc(a1-2)Gal(b1-3)[Fuc(a1-4)]GlcNAc(b1-2)Man(a1-3)[Fuc(a1-2)Gal(b1-3)[Fuc(a1-4)]GlcNAc(b1-2)Man(a1-6)]Man(b1-4)GlcNAc(b1-4)GlcNAc
# Method in brief: as §1
# [12] = target: Fuc(a1-2)Gal(b1-4)Glc
# Method in brief: as §1
# [13] = target: Fuc(a1-2)Gal(b1-4)Glc6S
# Method in brief: as §1
# [14] = target: Fuc(a1-2)Gal(b1-4)GlcNAc
# Method in brief: as §1
# [15] = target: Fuc(a1-2)Gal(b1-4)GlcNAc(b1-2)Man(a1-3)[Fuc(a1-2)Gal(b1-4)GlcNAc(b1-2)Man(a1-6)]Man(b1-4)GlcNAc(b1-4)GlcNAc
# Method in brief: as §1
# [16] = target: Fuc(a1-2)Gal(b1-4)GlcNAc(b1-3)Gal(b1-4)GlcNAc
# Method in brief: as §1
# [17] = target: Fuc(a1-2)Gal(b1-4)GlcNAc(b1-3)Gal(b1-4)GlcNAc(b1-3)Gal(b1-4)GlcNAc
# Method in brief: as §1
# [18] = target: Fuc(a1-2)Gal(b1-4)GlcNAc6S
# Method in brief: as §1
# [19] = target: Fuc(a1-2)Gal(b1-4)[Fuc(a1-3)]GlcNAc
# Method in brief: as §1
# [20] = target: Fuc(a1-2)Gal(b1-4)[Fuc(a1-3)]GlcNAc(b1-2)Man(a1-3)[Fuc(a1-2)Gal(b1-4)[Fuc(a1-3)]GlcNAc(b1-2)Man(a1-6)]Man(b1-4)GlcNAc(b1-4)GlcNAc
# Method in brief: as §1
# [21] = target: Fuc(a1-2)Gal(b1-4)[Fuc(a1-3)]GlcNAc(b1-3)Gal(b1-4)[Fuc(a1-3)]GlcNAc
# Method in brief: as §1
# [22] = target: Fuc(a1-2)Gal(b1-4)[Fuc(a1-3)]GlcNAc(b1-3)Gal(b1-4)[Fuc(a1-3)]GlcNAc(b1-3)Gal(b1-4)[Fuc(a1-3)]GlcNAc
# Method in brief: as §1
# [23] = target: Fuc(a1-2)Gal6S(b1-4)Glc
# Method in brief: as §1
# [24] = target: Fuc(a1-2)Gal6S(b1-4)Glc6S
# Method in brief: as §1
# [25] = target: Fuc(a1-2)Gal6S(b1-4)GlcNAc
# Method in brief: as §1
# [26] = target: Fuc(a1-2)[Gal(a1-3)]Gal
# Method in brief: as §1
# [27] = target: Fuc(a1-2)[Gal(a1-3)]Gal(b1-3)GlcNAc
# Method in brief: as §1
# [28] = target: Fuc(a1-2)[Gal(a1-3)]Gal(b1-3)GlcNAc(b1-2)Man(a1-3)[Fuc(a1-2)[Gal(a1-3)]Gal(b1-3)GlcNAc(b1-2)Man(a1-6)]Man(b1-4)GlcNAc(b1-4)GlcNAc
# Method in brief: as §1
# [29] = target: Fuc(a1-2)[Gal(a1-3)]Gal(b1-4)Glc
# Method in brief: as §1
# [30] = target: Fuc(a1-2)[Gal(a1-3)]Gal(b1-4)GlcNAc
# Method in brief: as §1
binder,measurement,setting,value
"Neuropilin-2 (Homo sapiens), O60462 (protein) MDMFPLTWVFLALYFSRHQVRGQPDPPCGGRLNSKDAGYITSPGYPQDYPSHQNCEWIVYAPEPNQKIVLNFNPHFEIEKHDCKYDFIEIRDGDSESADLLGKHCGNIAPPTIISSGSMLYIKFTSDYARQGAGFSLRYEIFKTGSEDCSKNFTSPNGTIESPGFPEKYPHNLDCTFTILAKPKMEIILQFLIFDLEHDPLQVGEGDCKYDWLDIWDGIPHVGPLIGKYCGTKTPSELRSSTGILSLTFHTDMAVAKDGFSARYYLVHQEPLENFQCNVPLGMESGRIANEQISASSTYSDGRWTPQQSRLHGDDNGWTPNLDSNKEYLQVDLRFLTMLTAIATQGAISRETQNGYYVKSYKLEVSTNGEDWMVYRHGKNHKVFQANNDATEVVLNKLHAPLLTRFVRIRPQTWHSGIALRLELFGCRVTDAPCSNMLGMLSGLIADSQISASSTQEYLWSPSAARLVSSRSGWFPRIPQAQPGEEWLQVDLGTPKTVKGVIIQGARGGDSITAVEARAFVRKFKVSYSLNGKDWEYIQDPRTQQPKLFEGNMHYDTPDIRRFDPIPAQYVRVYPERWSPAGIGMRLEVLGCDWTDSKPTVETLGPTVKSEETTTPYPTEEEATECGENCSFEDDKDLQLPSGFNCNFDFLEEPCGWMYDHAKWLRTTWASSSSPNDRTFPDDRNFLRLQSDSQREGQYARLISPPVHLPRSPVCMEFQYQATGGRGVALQVVREASQESKLLWVIREDQGGEWKHGRIILPSYDMEYQIVFEGVIGKGRSGEIAIDDIRISTDVPLENCMEPISAFAGENFKVDIPEIHEREGYEDEIDDEYEVDWSNSSSATSGSGAPSTDKEKSWLYTLDPILITIIAMSSLGVLLGATCAGLLLYCTCSYSGLSSRSCTTLENYNFELYDGLKHKVKMNHQKCCSEA",glycan array binding signal (z-score),[1],-0.954
same,glycan array binding signal (z-score),[2],0.125
same,glycan array binding signal (z-score),[3],1.26
same,glycan array binding signal (z-score),[4],0.325
same,glycan array binding signal (z-score),[5],-0.01
same,glycan array binding signal (z-score),[6],-0.234
same,glycan array binding signal (z-score),[7],1.05
same,glycan array binding signal (z-score),[8],-0.564
same,glycan array binding signal (z-score),[9],-0.248
same,glycan array binding signal (z-score),[10],0.065
same,glycan array binding signal (z-score),[11],1.92
same,glycan array binding signal (z-score),[12],-0.344
same,glycan array binding signal (z-score),[13],0.348
same,glycan array binding signal (z-score),[14],0.311
same,glycan array binding signal (z-score),[15],3.21
same,glycan array binding signal (z-score),[16],0.165
same,glycan array binding signal (z-score),[17],0.294
same,glycan array binding signal (z-score),[18],-0.565
same,glycan array binding signal (z-score),[19],0.117
same,glycan array binding signal (z-score),[20],2.33
same,glycan array binding signal (z-score),[21],-0.074
same,glycan array binding signal (z-score),[22],0.415
same,glycan array binding signal (z-score),[23],0.667
same,glycan array binding signal (z-score),[24],0.796
same,glycan array binding signal (z-score),[25],-0.558
same,glycan array binding signal (z-score),[26],-0.182
same,glycan array binding signal (z-score),[27],0.323
same,glycan array binding signal (z-score),[28],-0.212
same,glycan array binding signal (z-score),[29],-0.106
same,glycan array binding signal (z-score),[30],-0.731
